# Test results taken from a collection of fitness landscapes (doi:10.1016/j.celrep.2020.107928).
# In all, about 81,000 sequences were measured (“one-hybrid fitness for binding NBS DNA”: median about -0.1, highest 2% from about 0.36 on). The list shows a part of the results.
# B1: Caulobacter ParB omega fusion; a variant is named by its letters at X, in order, B8GW30 (parent)
# chain: MESVVVGEPGMSEGRRGLGRGLSALLGEVDAAPAQAPGEQLGGSREAPIEILQRNPDQPRRTFREEDLEDLSNSIREKGVLQPILVRPSPDTAGEYQIVAGERAWRAAQRAGLKTVPIMVRELDDLAVLEIGIIENVQRADLNVLEEALSYKVLMEKFERTQENIAQTIGKSXSHVANXMRLLXLPDEVQSYLVSGELTAXHARAIAAAADPVALAKQIIEGGLSVRETEALARKAPNLSAGKSKGGRPPRVKDTDTQALESDLSSVLGLDVSIDHRGSTGTLTITYATLEQLDDLCNRLTRGI
# Variants of: B1
# Assay: one-hybrid fitness for binding NBS DNA (the Noc-binding site; scaled: cognate 1, non-cognate 0); higher = stronger binding
# Conditions: with NBS DNA site
# In short: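 The reporter was HIS3, with the binding site 19 bp from the promoter, in E. coli USO used for bacterial one-hybrid selection of Caulobacter ParB libraries with four specificity codons randomised. Growth was on M9 lacking histidine, with 0.1 mM IPTG and 5 mM 3-AT, for 48 hours at 37°C. Illumina sequencing covered plasmids before and after selection; three replicate libraries were pooled and variants with under 10 reads dropped. A fitness score is the log change in variant-to-wild-type read ratio, rescaled to the cognate and non-cognate references.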
row,Variant,one-hybrid fitness for binding NBS DNA
1,RPDV,≤ 0.2
2,RLNA,0.218
3,QHGP,≤ 0.2
4,KGPT,≤ 0.2
5,WKTV,≤ 0.2
6,TRTL,≤ 0.2
7,PWAG,≤ 0.2
8,FKNR,≤ 0.2
9,QMRN,0.439
10,AHGE,≤ 0.2
11,RASR,0.417
12,DEVR,≤ 0.2
13,CCRA,≤ 0.2
14,PLTS,≤ 0.2
15,QSSN,≤ 0.2
16,YTSM,≤ 0.2
17,MAKW,≤ 0.2
18,VGWS,≤ 0.2
19,RIIM,≤ 0.2
20,SSFR,≤ 0.2
21,QIKE,≤ 0.2
22,LSDG,≤ 0.2
23,WMNV,≤ 0.2
24,GEYT,≤ 0.2

row,Variant,one-hybrid fitness for binding NBS DNA
1,ARIL,≤ 0.2
2,AHSI,≤ 0.2
3,FLMR,≤ 0.2
4,RMNE,≤ 0.2
5,QRTG,0.356
6,RSFC,≤ 0.2
7,PWVY,≤ 0.2
8,RKDW,≤ 0.2
9,LVWD,≤ 0.2
10,WLNC,≤ 0.2
11,QMGA,0.253
12,VIAN,≤ 0.2
13,MVSA,≤ 0.2
14,QTGD,≤ 0.2
15,PVRT,≤ 0.2
16,RVEG,≤ 0.2
17,AAHL,≤ 0.2
18,QLCL,≤ 0.2
19,PLDG,≤ 0.2
20,VNNN,≤ 0.2
21,SGVI,≤ 0.2
22,FQTG,≤ 0.2
23,TDNR,≤ 0.2
24,NVGC,≤ 0.2

row,Variant,one-hybrid fitness for binding NBS DNA
1,PWRY,≤ 0.2
2,MTAT,≤ 0.2
3,VAGM,≤ 0.2
4,ACVT,≤ 0.2
5,HVGP,≤ 0.2
6,KQCR,≤ 0.2
7,REAV,≤ 0.2
8,VRHL,≤ 0.2
9,DHVA,≤ 0.2
10,SCTK,≤ 0.2
11,YQVR,≤ 0.2
12,EPFR,≤ 0.2
13,WVKT,≤ 0.2
14,IVIR,≤ 0.2
15,RFPA,≤ 0.2
16,HRTC,≤ 0.2
17,FRLK,≤ 0.2
18,LFMS,≤ 0.2
19,LTMF,≤ 0.2
20,QYYA,0.271
21,PQAE,≤ 0.2
22,ATSY,≤ 0.2
23,AYTR,≤ 0.2
24,RLFN,≤ 0.2

row,Variant,one-hybrid fitness for binding NBS DNA
1,AQCR,≤ 0.2
2,WCER,≤ 0.2
3,TDYL,≤ 0.2
4,YNSV,≤ 0.2
5,VIDN,≤ 0.2
6,YNRM,≤ 0.2
7,QTPL,≤ 0.2
8,HMQS,≤ 0.2
9,GMER,≤ 0.2
10,RQEV,≤ 0.2
11,WLPT,≤ 0.2
12,MDPA,≤ 0.2
13,RAMG,≤ 0.2
14,RVCQ,≤ 0.2
15,ECNC,≤ 0.2
16,IRVG,≤ 0.2
17,FEMN,≤ 0.2
18,PYQR,≤ 0.2
19,QCTK,≤ 0.2
20,SAAP,≤ 0.2
21,EHMT,≤ 0.2
22,TKYC,≤ 0.2
23,QKRE,0.248
24,KRVR,0.456

row,Variant,one-hybrid fitness for binding NBS DNA
1,RHCP,≤ 0.2
2,HAMG,≤ 0.2
3,IRDG,≤ 0.2
4,EPAL,≤ 0.2
5,FKKG,≤ 0.2
6,FLKN,≤ 0.2
7,VEIT,≤ 0.2
8,RSYQ,≤ 0.2
9,FMKF,≤ 0.2
10,SQTM,≤ 0.2
11,KACG,≤ 0.2
12,QSVM,≤ 0.2
13,ATCW,≤ 0.2
14,MATH,≤ 0.2
15,RGYI,≤ 0.2
16,MDSC,≤ 0.2
17,ICSL,≤ 0.2
18,ALKN,≤ 0.2
19,SIEL,≤ 0.2
20,LTAR,≤ 0.2
21,VLQP,≤ 0.2
22,WIAS,≤ 0.2
23,IEAR,≤ 0.2
24,DPSH,≤ 0.2

row,Variant,one-hybrid fitness for binding NBS DNA
1,PRVQ,≤ 0.2
2,TRPN,≤ 0.2
3,KAAY,≤ 0.2
4,DVYG,≤ 0.2
5,GVQV,≤ 0.2
6,QTMD,≤ 0.2
7,TYYY,≤ 0.2
8,RTVE,≤ 0.2
9,RQYA,≤ 0.2
10,PWAS,≤ 0.2
11,MMLF,≤ 0.2
12,ESRC,≤ 0.2
13,SICY,≤ 0.2
14,HAPC,≤ 0.2
15,SMNV,≤ 0.2
16,TNQS,≤ 0.2
17,EPGF,≤ 0.2
18,QPDK,≤ 0.2
19,PEVT,≤ 0.2
20,FPRG,≤ 0.2
21,LVLM,≤ 0.2
22,HRNE,≤ 0.2
23,SAKF,≤ 0.2
24,LAGG,≤ 0.2

row,Variant,one-hybrid fitness for binding NBS DNA
1,EITG,≤ 0.2
2,WGVS,≤ 0.2
3,SCSI,≤ 0.2
4,DRQV,≤ 0.2
5,MPRP,≤ 0.2
6,PVIG,≤ 0.2
7,SERW,≤ 0.2
8,LTND,≤ 0.2
9,QAPY,≤ 0.2
10,PIQQ,≤ 0.2
11,TLNE,≤ 0.2
12,PSKG,≤ 0.2
13,YPHD,≤ 0.2
14,EMAC,≤ 0.2
15,KFPC,≤ 0.2
16,MHVT,≤ 0.2
17,IGDW,≤ 0.2
18,TPYY,≤ 0.2
19,SSWT,≤ 0.2
20,PGIS,≤ 0.2
21,APTG,≤ 0.2
22,LTSD,≤ 0.2
23,KSNN,≤ 0.2
24,VLHP,≤ 0.2

row,Variant,one-hybrid fitness for binding NBS DNA
1,GGDL,≤ 0.2
2,FWPG,≤ 0.2
3,HRTD,≤ 0.2
4,AYDW,≤ 0.2
5,GRAS,≤ 0.2
6,NAIH,≤ 0.2
7,FRKN,≤ 0.2
8,PLSY,≤ 0.2
9,VRLC,≤ 0.2
10,NRVS,≤ 0.2
11,MWWS,≤ 0.2
12,EDLS,≤ 0.2
13,KLYC,≤ 0.2
14,QSME,≤ 0.2
15,ATCR,≤ 0.2
16,PLYT,≤ 0.2
17,PAMG,≤ 0.2
18,WLRR,≤ 0.2
19,IAFM,≤ 0.2
20,MMPT,≤ 0.2
21,PKKC,≤ 0.2
22,KMYA,≤ 0.2
23,KWAS,≤ 0.2
24,STRP,≤ 0.2

row,Variant,one-hybrid fitness for binding NBS DNA
1,CRVM,≤ 0.2
2,EYTA,≤ 0.2
3,ERQG,≤ 0.2
4,STTK,≤ 0.2
5,IYIV,≤ 0.2
6,HSTR,≤ 0.2
7,QCSF,≤ 0.2
8,FHHC,≤ 0.2
9,TKVY,≤ 0.2
10,ERVG,≤ 0.2
11,APPL,≤ 0.2
12,DGGS,≤ 0.2
13,PPMF,≤ 0.2
14,YPFC,≤ 0.2
15,AAEP,≤ 0.2
16,PSLW,≤ 0.2
17,DRVV,≤ 0.2
18,TCIR,≤ 0.2
19,FDRV,≤ 0.2
20,VVFC,≤ 0.2
21,RIMW,0.253
22,TWAF,≤ 0.2
23,CLRW,≤ 0.2
24,NWHD,≤ 0.2

row,Variant,one-hybrid fitness for binding NBS DNA
1,EHCS,≤ 0.2
2,CEFR,≤ 0.2
3,HDTY,≤ 0.2
4,KTDA,≤ 0.2
5,NFAG,≤ 0.2
6,CLIH,≤ 0.2
7,YDWG,≤ 0.2
8,GGSF,≤ 0.2
9,VSHT,≤ 0.2
10,PQGY,≤ 0.2
11,HAQY,≤ 0.2
12,QKID,≤ 0.2
13,LREM,≤ 0.2
14,VWKI,≤ 0.2
15,LEDW,≤ 0.2
16,LSRH,≤ 0.2
17,QRSI,0.296
18,NTAE,≤ 0.2
19,AIWC,≤ 0.2
20,YTST,≤ 0.2
21,NIAY,≤ 0.2
22,KRAC,≤ 0.2
23,ANND,≤ 0.2
24,VTAS,≤ 0.2

row,Variant,one-hybrid fitness for binding NBS DNA
1,LHVT,≤ 0.2
2,VIVS,≤ 0.2
3,QSQH,0.246
4,YLAD,≤ 0.2
5,KTMR,≤ 0.2
6,NTTI,≤ 0.2
7,RRVC,0.414
8,GPCI,≤ 0.2
9,QCPV,≤ 0.2
10,NSLW,≤ 0.2
11,LRLG,≤ 0.2
12,ADTP,≤ 0.2
13,AKPN,≤ 0.2
14,KRRD,≤ 0.2
15,YQAR,≤ 0.2
16,LVED,≤ 0.2
17,EVVR,≤ 0.2
18,MGVG,≤ 0.2
19,QTAV,0.217
20,RQDH,≤ 0.2
21,NTRV,≤ 0.2
22,NHDW,≤ 0.2
23,ANKC,≤ 0.2
24,TLPL,≤ 0.2

row,Variant,one-hybrid fitness for binding NBS DNA
1,KANL,≤ 0.2
2,RFSH,≤ 0.2
3,ETKR,0.278
4,CFRT,≤ 0.2
5,VVPP,≤ 0.2
6,YLYR,≤ 0.2
7,YSAG,≤ 0.2
8,TPCD,≤ 0.2
9,DFLS,≤ 0.2
10,QKQI,≤ 0.2
11,PEAN,≤ 0.2
12,IPHV,≤ 0.2
13,PVML,≤ 0.2
14,HTKM,≤ 0.2
15,RGNG,≤ 0.2
16,LDWL,≤ 0.2
17,SAGE,≤ 0.2
18,ASPR,≤ 0.2
19,QIKP,≤ 0.2
20,TFKC,≤ 0.2
21,AWNS,≤ 0.2
22,MQSY,≤ 0.2
23,KGGI,≤ 0.2
24,ELCF,≤ 0.2

row,Variant,one-hybrid fitness for binding NBS DNA
1,SCAR,≤ 0.2
2,RMNN,≤ 0.2
3,AYLA,≤ 0.2
4,NWLE,≤ 0.2
5,LYAG,≤ 0.2
6,AMPN,≤ 0.2
7,TAYR,≤ 0.2
8,RNWP,≤ 0.2
9,ASQT,≤ 0.2
10,RFLM,≤ 0.2
11,QGKN,≤ 0.2
12,HSPG,≤ 0.2
13,PMST,≤ 0.2
14,LYCS,≤ 0.2
15,RAWH,≤ 0.2
16,SKRA,≤ 0.2
17,LLCT,≤ 0.2
18,NYER,≤ 0.2
